Data reported in PubChem BioAssay AID1345082 (National Center for Advancing Translational Sciences (NCATS), 2018).
Out of some 94,000 compounds screened, about 4,000 (4.3%) were called active. Where a call stands in place of a potency, no number is given. The inconclusive results got no clear call from the source; some entries with a clear call stand among them for comparison. Calls follow the shape of the dose curve; as a rule, active = well fitted inhibition curve with a large enough effect; inconclusive = small, poorly fitted or top-dose-only effect; inactive = no such curve, though single readings can be large or run the other way. Potencies beside an inconclusive call are fits to weak or partial responses and may not hold up.

test: Cytotoxic Profiling in NIH 3T3 Cell Line of Diverse Libraries Using Quantitative High-Throughput Screening; conditions: NIH 3T3 viability, CellTiter-Glo ATP luminescence, 48-72 h; series mostly up to 96.7 µM; also: nearly all actives have a fitted effect of over 55% in size
Procedure, shortened: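 Mouse fibroblast NIH 3T3 cells, 400 per well, received compound via pintool and were incubated for 48 or 72 hr prior to CellTiter-Glo ATP luminescence measurement.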
Potency is read from the fitted curve at half-maximal effect; tags tell the direction and shape of the fitted curve.

SMILES	Potency
O=C(Cn1ccn2nc3c(c2c1=O)CCCCC3)Nc1ccccc1F	inactive
CCOC(=O)C1(Cc2ccccc2C)CCCN(C(=O)c2cc[n+]([O-])cc2)C1 (stereo unspecified)	inactive
CCOc1ccccc1CNC(=O)c1c(C)noc1-c1ccc2c(c1)OCO2	inconclusive: 50.1 µM [inhibitor, partial curve, poor fit]
CC1(CNc2ccccc2)COc2ccc(C(=O)NCCc3cnc[nH]3)cc2N1 (stereo unspecified)	inconclusive: 22.4 µM [inhibitor, full curve]
CCN(C(=O)CCC(=O)N1CCCC(Cc2nncn2-c2ccccc2)C1)c1ccccc1 (stereo unspecified)	inactive
CC1=C(C(=O)OC(C)C)C(c2ccc([N+](=O)[O-])cc2)N2C(CC(=O)N3CCCC3)=CSC2=N1 (stereo unspecified)	inactive
Cn1cnnc1-c1nn(C)c2c1CNCC2	inconclusive: 56.2 µM [inhibitor, partial curve, poor fit]
COCCNC(=O)c1nc2sccn2c1-c1ccc(C(F)(F)F)cc1	inconclusive: 50.1 µM [inhibitor, partial curve, poor fit]
CC(C)CC(=O)N1CCC(c2noc(-c3ccncc3)n2)C1 (stereo unspecified)	inactive
Cn1cc(CC(=O)N2CCCc3ncc(C(=O)Nc4cccc(Cl)c4)cc32)c2ccccc21	inconclusive: 39.8 µM [inhibitor, partial curve]
COc1ccccc1-c1nnc2ccc(C(=O)NCc3ccc(Cl)cc3)cn12	inconclusive: 50.1 µM [inhibitor, partial curve, poor fit]
Cc1ccccc1CN1C[C@@H]2C(=O)N(Cc3ccc4c(c3)OCO4)C(=O)[C@@H]2C1	inactive
COc1ccccc1Cn1c(=O)c(C(=O)N2CCN(Cc3ccccc3)CC2)nc2cccnc21	inactive
O=C(NC1CCNC1)C1CCN(c2nc(-c3ccccc3)nc3c2CCC3)CC1 (stereo unspecified)	inconclusive: 39.8 µM [inhibitor, full curve, poor fit]
COc1ccccc1-c1cc(C(=O)NCc2cccc(Cl)c2)nn2cnnc12	inconclusive: 17.8 µM [inhibitor, full curve]
O=C(Cc1ccsc1)Nc1cccc(-c2nnc3n2CCCC3)c1	inactive
COC(=O)[C@@H](C)NC(=O)[C@@H]1CN(C(=O)c2cccc(F)c2)CCN1C(C)=O	inactive
CC(C)(C)C(=O)N1CCC2(CC1)CC(=O)N(c1ccccc1)c1ccccc1O2	inactive
O=C(c1ccc(F)cc1)N1CCC(C(=O)N2CCC(N3CCOCC3=O)CC2)CC1	inactive
Cc1noc([C@@H]2CN(C(=O)c3cc(C)n(C)n3)C[C@H]2COCC2CC2)n1	inactive
COc1ccc(CCN2Cc3cc(NC(=O)c4cccc(F)c4)ccc3OC(C)C2=O)cc1 (stereo unspecified)	inconclusive: 44.7 µM [inhibitor, partial curve, poor fit]
